Results: patent US20120189541A1 (AbbVie / Abbott, published 2012)
Values belong to the binder of their own block, whether it stands above or below them.

How the values were obtained:
Recombinant Human IL-1α [1] = molecular target: T1, Recombinant Human IL-1α (human, UniProt P01583 113-271); assay: capture ELISA: DVD-Ig captured by anti-human Fc, biotinylated antigen titrated; C-terminal VD
T1 construct: Bought recombinant protein; Biotinylated in the capture ELISA; also called hIL-1α; IL-1 alpha
T1 sequence (looked up): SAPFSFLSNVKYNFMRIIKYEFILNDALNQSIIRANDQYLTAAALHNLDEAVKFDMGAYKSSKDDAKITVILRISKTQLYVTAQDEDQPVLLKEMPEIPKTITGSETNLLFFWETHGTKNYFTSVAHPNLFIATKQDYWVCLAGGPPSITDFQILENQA
Method: (§1) Plates were washed five times in washing buffer (PBS containing 0.05% Tween 20) and blocked for 1 hour at 25° C. with 200 μl per well superblock blocking buffer (Thermo scientific, #37515). Blocking buffer was removed, and 2 μg/ml of each antibody or DVD-Ig molecule in PBS containing 10% superblock, 0.5% Tween-20 was added to the wells at 100 μl per well and incubated at 25° C. for 1 hour. The wells were washed five times in 1×PBST, and 1 μg/ml biotinylated antigen was titrated at 1:6 serial dilutions (for a range of μg to pg in PBS containing 10% superblock, 0.05% tween 20). Each dilution of antigen was then added to the plates and incubated for 1 hour at 25° C. The wells were washed five times in 1×PBST and incubated for 1 hour at 25° C. with polyHRP streptavidin (KPL #474-3000, Gaithersburg, Md.). The wells were washed five times in 1×PBST, and 100 μl of ULTRA-TMB ELISA (Pierce, Rockford, Ill.) were added per well. Following color development the reaction was stopped with 1N HCL and absorbance at 450 nm is measured.

Recombinant Human IL-1β [2] = molecular target: T2, Recombinant Human IL-1β (human, UniProt P01584 117-269); assay: SPR (BIACORE), human antigen
T2 construct: Bought recombinant protein; Biotinylated in the capture ELISA; also called hIL-1β; IL-1 beta
Method: (§2) The BIACORE assay (Biacore, Inc, Piscataway, N.J.) determines the affinity of antibodies or DVD-Ig molecule with kinetic measurements of on-rate and off-rate constants. Binding of antibodies or DVD-Ig molecule to a target antigen (for example, a purified recombinant target antigen) is determined by surface plasmon resonance-based measurements with a Biacore® 1000 or 3000 instrument (Biacore® AB, Uppsala, Sweden) using running HBS-EP (10 mM HEPES [pH 7.4], 150 mM NaCl, 3 mM EDTA, and 0.005% surfactant P20) at 25° C. All chemicals are obtained from Biacore® AB (Uppsala, Sweden) or otherwise from a different source as described in the text. For example, approximately 5000 RU of goat anti-mouse IgG, (Fcγ), fragment specific polyclonal antibody (Pierce Biotechnology Inc, Rockford, Ill.) diluted in 10 mM sodium acetate (pH 4.5) is directly immobilized across a CM5 research grade biosensor chip using a standard amine coupling kit according to manufacturer's instructions and procedures at 25 μg/ml. Unreacted moieties on the biosensor surface are blocked with ethanolamine. Modified carboxymethyl dextran surface in flowcell 2 and 4 is used as a reaction surface. Unmodified carboxymethyl dextran without goat anti-mouse IgG in flow cell 1 and 3 is used as the reference surface. For kinetic analysis, rate equations derived from the 1:1 Langmuir binding model are fitted simultaneously to association and dissociation phases of all eight injections (using global fit analysis) with the use of Biaevaluation 4.0.1 software. Purified antibodies or DVD-Ig molecule are diluted in HEPES-buffered saline for capture across goat anti-mouse IgG specific reaction surfaces. Antibodies or DVD-Ig molecule to be captured as a ligand (25 μg/ml) are injected over reaction matrices at a flow rate of 5 μl/min. The association and dissociation rate constants, kₒₙ (M⁻¹s⁻¹) and koff (s⁻¹) are determined under a continuous flow rate of 25 μl/minute. Rate constants are derived by making kinetic binding measurements at different antigen concentrations ranging from 10-200 nM. The equilibrium dissociation constant (M) of the reaction between antibodies or DVD-Ig molecules and the target antigen is then calculated from the kinetic rate constants by the following formula: KD=koff/kₒₙ. Binding is recorded as a function of time and kinetic rate constants are calculated.

Recombinant Human IL-1α [3] = molecular target: T1, Recombinant Human IL-1α; assay: SPR (BIACORE), human antigen
Method: as §2

Recombinant Human IL-1β [4] = molecular target: T2, Recombinant Human IL-1β; assay: capture ELISA: DVD-Ig captured by anti-human Fc, biotinylated antigen titrated; N-terminal VD
Method: as §1

Recombinant Human IL-1β [5] = molecular target: T2, Recombinant Human IL-1β; assay: cell-based or functional assay
Recombinant Human IL-1α [6] = molecular target: T1, Recombinant Human IL-1α; assay: cell-based or functional assay

EC50 (Recombinant Human IL-1α [1]): 0.0087 nM
Kd (Recombinant Human IL-1β [2]): 0.355 nM
koff (Recombinant Human IL-1β [2]): 0.0011 s⁻¹
kon (Recombinant Human IL-1β [2]): 3.08e+06 M⁻¹ s⁻¹
Kd (Recombinant Human IL-1α [3]): 0.12 nM
koff (Recombinant Human IL-1α [3]): 1.33e-05 s⁻¹
kon (Recombinant Human IL-1α [3]): 111000 M⁻¹ s⁻¹
EC50 (Recombinant Human IL-1β [4]): 0.0409 nM
Human IL-1β Neutralization Assay EC50 (IL-1 induced hIL-8, MRC-5 cells) (Recombinant Human IL-1β [5]): 2.05 nM
Human IL-1α Neutralization Assay EC50 (IL-1 induced hIL-8, MRC-5 cells) (Recombinant Human IL-1α [6]): 0.0307 nM
B1: 1B12.1-SS-3D12r16 (bispecific antibody, human IgG1, kappa)
heavy: EVQLQESGPGLVKPSETLSLTCTVSGFSLSDYGVSWIRQPPGKGLEWLGLIWGGGDTYYNSPLKSRLTISKDNSKSQVSLKLSSVTAADTAVYYCAKQRTLWGYDLYGMDYWGQGTLVTVSSASTKGPEVQLVQSGAEVKKPGASVKVSCKASGYTFKYYGMNWVRQAPGQGLERMGWINTYTGQSTYADDFKGRVTFTLDTSTSTAYMELSSLRSEDTAVYYCARDIYYYGSDFAMDYWGQGTTVTVSSASTKGPSVFPLAPSSKSTSGGTAALGCLVKDYFPEPVTVSWNSGALTSGVHTFPAVLQSSGLYSLSSVVTVPSSSLGTQTYICNVNHKPSNTKVDKKV[letters of human IgG1 Fc with changes not shown]
light: DTQVTQSPSSLSASVGDRVTITCITSTDIDVDMNWYQQKPGKPPKLLISQGNTLRPGVPSRFSSSGSGTDFTFTISSLQPEDFATYYCLQSDNLPLTFGQGTKLEIKRTVAAPDIQMTQSPSSLSASVGDRVTITCRASQDISNMLNWYQQKPGKAPKLLIYYTSRLKPGVPSRFSGSGSGTDYTFTISSLQPEDIATYFCQQGKTAPYTFGQGTKLEIKRTVAAPSVFIFPPSDEQLKSGTASVVCLLNNFYPREAKVQWKVDNALQSGNSQESVTEQDSKDSTYSLSSTLTLSKADYEKHKVYACEVTHQGLSSPVTKSFNRGEC
notes: DVD-Ig, outer domain anti-IL-1β, inner domain anti-IL-1α, short linkers

EC50 (Recombinant Human IL-1α [1]): 0.0208 nM
Kd (Recombinant Human IL-1β [2]): 0.315 nM
koff (Recombinant Human IL-1β [2]): 0.00117 s⁻¹
kon (Recombinant Human IL-1β [2]): 3.7e+06 M⁻¹ s⁻¹
Kd (Recombinant Human IL-1α [3]): < 0.023 nM
koff (Recombinant Human IL-1α [3]): < 1e-06 s⁻¹
kon (Recombinant Human IL-1α [3]): 43900 M⁻¹ s⁻¹
EC50 (Recombinant Human IL-1β [4]): 0.0352 nM
Human IL-1β Neutralization Assay EC50 (IL-1 induced hIL-8, MRC-5 cells) (Recombinant Human IL-1β [5]): 1.74 nM
Human IL-1α Neutralization Assay EC50 (IL-1 induced hIL-8, MRC-5 cells) (Recombinant Human IL-1α [6]): 0.0687 nM
B2: 1B12.3-SS-3D12r16 (bispecific antibody, human IgG1, kappa)
heavy: EVQLQESGPGLVKPSETLSLTCTVSGFSLSDYGVSWIRQPPGKGLEWLGLIWGGGDTYYNSPLKSRLTISKDNSKSQVSLKLSSVTAADTAVYYCAKQRTLWGYDLYGMDYWGQGTLVTVSSASTKGPEVQLVQSGAEVKKPGASVKVSCKASGYTFKYYGMNWVRQAPGQGLERMGWINTYTGQSTYADDFKGRVTFTLDTSTSTAYMELSSLRSEDTAVYYCARDIYYYGSDFAMDYWGQGTTVTVSSASTKGPSVFPLAPSSKSTSGGTAALGCLVKDYFPEPVTVSWNSGALTSGVHTFPAVLQSSGLYSLSSVVTVPSSSLGTQTYICNVNHKPSNTKVDKKV[letters of human IgG1 Fc with changes not shown]
light: DTVVTQSPAFLSVTPGEKVTITCITSTDIDVDMNWYQQKPDQPPKLLISQGNTLRPGVPSRFSSSGSGTDFTFTISSLEAEDAATYYCLQSDNLPLTFGQGTKLEIKRTVAAPDIQMTQSPSSLSASVGDRVTITCRASQDISNMLNWYQQKPGKAPKLLIYYTSRLKPGVPSRFSGSGSGTDYTFTISSLQPEDIATYFCQQGKTAPYTFGQGTKLEIKRTVAAPSVFIFPPSDEQLKSGTASVVCLLNNFYPREAKVQWKVDNALQSGNSQESVTEQDSKDSTYSLSSTLTLSKADYEKHKVYACEVTHQGLSSPVTKSFNRGEC
notes: as for B1
